From paper PMC6054203
Results are given in words; binding and its absence hold for the method and conditions named. Some binding calls cover weakened binding; strength is not graded here. Where a sequence is shown, tags or fusion partners need not be part of it.

Assays:
[1] = biological target: T1, CIPK25, two-hybrid fusion (Arabidopsis) (UniProt Q8W1D5); assay: two-hybrid; yeast strain AH109 co-transformed with AD (pGAD.GH) and BD (pGBT9.BS) fusions; growth on SC-LWH and on SC-LWH with 0.5 and 3.0 mM 3-AT
T1 sequence: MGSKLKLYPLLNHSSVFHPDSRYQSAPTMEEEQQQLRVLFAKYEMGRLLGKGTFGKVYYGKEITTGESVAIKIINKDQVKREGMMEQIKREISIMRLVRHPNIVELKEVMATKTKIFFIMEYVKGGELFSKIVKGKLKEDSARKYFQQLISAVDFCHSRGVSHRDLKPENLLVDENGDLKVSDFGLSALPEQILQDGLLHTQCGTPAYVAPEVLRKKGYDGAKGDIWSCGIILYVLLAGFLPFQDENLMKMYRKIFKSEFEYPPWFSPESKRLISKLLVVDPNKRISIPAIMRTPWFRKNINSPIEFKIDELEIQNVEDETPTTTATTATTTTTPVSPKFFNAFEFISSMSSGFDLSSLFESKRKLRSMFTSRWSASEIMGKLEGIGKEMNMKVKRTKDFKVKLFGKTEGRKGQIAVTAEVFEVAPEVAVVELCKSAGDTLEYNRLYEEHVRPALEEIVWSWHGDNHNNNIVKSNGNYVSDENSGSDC

[2] = biological target: T2, CIPK21, two-hybrid fusion (Arabidopsis) (UniProt Q94CG0); assay: as above
T2 sequence: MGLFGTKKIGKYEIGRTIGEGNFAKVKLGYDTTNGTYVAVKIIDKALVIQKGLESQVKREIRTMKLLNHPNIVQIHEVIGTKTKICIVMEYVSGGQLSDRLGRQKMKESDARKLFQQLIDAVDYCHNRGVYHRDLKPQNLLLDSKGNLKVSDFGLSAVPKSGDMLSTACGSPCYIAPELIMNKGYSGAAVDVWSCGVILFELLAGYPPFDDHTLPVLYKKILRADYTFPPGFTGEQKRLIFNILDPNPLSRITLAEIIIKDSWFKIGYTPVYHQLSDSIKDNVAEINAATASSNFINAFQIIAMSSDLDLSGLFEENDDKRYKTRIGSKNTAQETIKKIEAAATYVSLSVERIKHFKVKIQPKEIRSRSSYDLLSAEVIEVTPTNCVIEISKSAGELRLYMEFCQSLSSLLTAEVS

[3] = biological target: T3, CIPK7, two-hybrid fusion (Arabidopsis) (UniProt Q9XIW0); assay: as above
T3 sequence: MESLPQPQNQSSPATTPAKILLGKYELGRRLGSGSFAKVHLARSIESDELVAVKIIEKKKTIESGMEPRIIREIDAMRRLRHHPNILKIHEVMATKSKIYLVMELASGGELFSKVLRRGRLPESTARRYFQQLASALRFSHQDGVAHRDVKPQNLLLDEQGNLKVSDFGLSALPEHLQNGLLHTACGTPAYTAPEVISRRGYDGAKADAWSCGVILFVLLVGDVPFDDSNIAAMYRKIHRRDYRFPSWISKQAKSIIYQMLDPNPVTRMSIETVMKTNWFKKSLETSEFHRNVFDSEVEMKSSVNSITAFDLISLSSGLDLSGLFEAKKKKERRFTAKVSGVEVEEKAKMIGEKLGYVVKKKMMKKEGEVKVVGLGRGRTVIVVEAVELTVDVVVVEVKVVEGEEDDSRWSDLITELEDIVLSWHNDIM

[4] = biological target: T4, CIPK18, two-hybrid fusion (Arabidopsis) (UniProt Q9LP51); assay: as above
T4 sequence: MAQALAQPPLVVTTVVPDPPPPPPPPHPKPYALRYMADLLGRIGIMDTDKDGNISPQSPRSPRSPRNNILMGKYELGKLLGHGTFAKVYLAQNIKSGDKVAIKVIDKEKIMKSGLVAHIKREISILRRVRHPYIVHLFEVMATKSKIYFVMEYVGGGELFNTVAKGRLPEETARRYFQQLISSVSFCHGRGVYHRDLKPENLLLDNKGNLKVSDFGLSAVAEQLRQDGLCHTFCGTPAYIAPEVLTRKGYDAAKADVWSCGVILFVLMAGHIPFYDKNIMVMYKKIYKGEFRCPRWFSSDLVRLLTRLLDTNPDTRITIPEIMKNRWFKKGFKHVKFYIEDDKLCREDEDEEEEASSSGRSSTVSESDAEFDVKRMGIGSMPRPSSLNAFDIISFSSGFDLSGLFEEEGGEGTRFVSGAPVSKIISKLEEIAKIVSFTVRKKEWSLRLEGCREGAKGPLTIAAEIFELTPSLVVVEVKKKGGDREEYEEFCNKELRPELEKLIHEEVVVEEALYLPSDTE

[5] = biological target: T5, CBL-interacting protein kinase 9 (CIPK9), two-hybrid fusion (Arabidopsis thaliana) (UniProt Q9MAM1); assay: two-hybrid; yeast two-hybrid library screening for interactors of CIPK9
T5 sequence: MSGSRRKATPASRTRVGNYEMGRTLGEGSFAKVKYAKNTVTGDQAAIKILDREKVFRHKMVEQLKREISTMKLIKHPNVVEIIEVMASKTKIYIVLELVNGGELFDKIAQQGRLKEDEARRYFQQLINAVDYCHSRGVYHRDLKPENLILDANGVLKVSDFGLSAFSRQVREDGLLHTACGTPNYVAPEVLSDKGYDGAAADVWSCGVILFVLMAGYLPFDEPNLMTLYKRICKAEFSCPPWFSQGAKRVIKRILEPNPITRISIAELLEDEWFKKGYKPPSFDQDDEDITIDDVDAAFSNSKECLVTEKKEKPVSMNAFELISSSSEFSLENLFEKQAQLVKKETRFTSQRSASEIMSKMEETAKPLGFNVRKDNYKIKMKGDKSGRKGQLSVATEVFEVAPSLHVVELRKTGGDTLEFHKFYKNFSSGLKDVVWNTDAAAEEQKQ

binding [1]: no binding
binding [2]: no binding
binding [3]: no binding
binding [4]: no binding
binding [5]: binds
B1: AP2C1 (protein phosphatase 2C), two-hybrid fusion (enzyme, UniProt O80871 1-396)
chain: MSCSVAVCNSPVFSPSSSLFCNKSSILSSPQESLSLTLSHRKPQTSSPSSPSTTVSSPKSPFRLRFQKPPSGFAPGPLSFGSESVSASSPPGGVLKRKRPTRLDIPIGVAGFVAPISSSAAVAATPREECREVEREGDGYSVYCKRGRREAMEDRFSAITNLHGDRKQAIFGVYDGHGGVKAAEFAAKNLDKNIVEEVVGKRDESEIAEAVKHGYLATDASFLKEEDVKGGSCCVTALVNEGNLVVSNAGDCRAVMSVGGVAKALSSDHRPSRDDERKRIETTGGYVDTFHGVWRIQGSLAVSRGIGDAQLKKWVIAEPETKISRIEHDHEFLILASDGLWDKVSNQEAVDIARPLCLGTEKPLLLAACKKLVDLSASRGSSDDISVMLIPLRQFI
